In the supplement of paper PMC8728848:
The list shows a part of the results.

Columns and labels:
Assay in all cases: glycan array binding signal (z-score within array); higher = stronger binding
Settings in all cases: glycan notation: IUPAC condensed, linker removed
[1] = target: GlcNAc(b1-4)GlcNAc(b1-4)GlcNAc(b1-4)GlcNAc(b1-4)GlcNAc
Method in brief: (§1)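 The Consortium for Functional Glycomics database supplied 3228 glycan arrays, of which those lacking an available protein sequence were dropped. The binding signal, a within-array Z-score, was averaged across arrays of the same protein sequence and across linkers. Negative scores can be read as non-binding.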

[2] = target: GlcNAc(b1-4)GlcNAc(b1-4)GlcNAc(b1-4)GlcNAc(b1-4)GlcNAc(b1-4)GlcNAc
Method in brief: as §1

[3] = target: GlcNAc(b1-4)[GlcNAc(b1-6)]GalNAc
Method in brief: as §1

[4] = target: GlcNAc(b1-6)Gal(b1-4)GlcNAc
Method in brief: as §1

[5] = target: GlcNAc(b1-6)GalNAc
Method in brief: as §1

[6] = target: GlcNAc6S(b1-3)Gal(b1-4)GlcNAc
Method in brief: as §1

[7] = target: Kdn(a2-3)Gal(b1-3)GalNAc
Method in brief: as §1

[8] = target: Kdn(a2-3)Gal(b1-3)GlcNAc
Method in brief: as §1

[9] = target: Kdn(a2-3)Gal(b1-4)Glc
Method in brief: as §1

[10] = target: Kdn(a2-3)Gal(b1-4)GlcNAc
Method in brief: as §1

[11] = target: Kdn(a2-3)Gal(b1-4)[Fuc(a1-3)]GlcNAc
Method in brief: as §1

[12] = target: Kdn(a2-6)Gal(b1-4)GlcNAc
Method in brief: as §1

[13] = target: Man(a1-2)Man(a1-2)Man(a1-3)Man
Method in brief: as §1

[14] = target: Man(a1-2)Man(a1-2)Man(a1-6)[Man(a1-3)]Man
Method in brief: as §1

[15] = target: Man(a1-2)Man(a1-3)Man
Method in brief: as §1

[16] = target: Man(a1-2)Man(a1-3)[Man(a1-2)Man(a1-6)]Man
Method in brief: as §1

[17] = target: Man(a1-2)Man(a1-3)[Man(a1-2)Man(a1-6)]Man(a1-6)[Man(a1-2)Man(a1-2)Man(a1-3)]Man
Method in brief: as §1

[18] = target: Man(a1-2)Man(a1-3)[Man(a1-2)Man(a1-6)]Man(a1-6)[Man(a1-2)Man(a1-2)Man(a1-3)]Man(b1-4)GlcNAc(b1-4)GlcNAc
Method in brief: as §1

[19] = target: Man(a1-2)Man(a1-3)[Man(a1-6)]Man(a1-6)[Man(a1-2)Man(a1-3)]Man(b1-4)GlcNAc(b1-4)GlcNAc
Method in brief: as §1

[20] = target: Man(a1-2)Man(a1-6)[Man(a1-3)]Man(a1-6)[Man(a1-2)Man(a1-2)Man(a1-3)]Man
Method in brief: as §1

[21] = target: Man(a1-2)Man(a1-6)[Man(a1-3)]Man(a1-6)[Man(a1-2)Man(a1-2)Man(a1-3)]Man(b1-4)GlcNAc(b1-4)GlcNAc
Method in brief: as §1

[22] = target: Man(a1-3)[Man(a1-6)]Man
Method in brief: as §1

[23] = target: Man(a1-3)[Man(a1-6)]Man(a1-6)[Man(a1-2)Man(a1-3)]Man(b1-4)GlcNAc(b1-4)GlcNAc
Method in brief: as §1

[24] = target: Man(a1-3)[Man(a1-6)]Man(a1-6)[Man(a1-3)]Man
Method in brief: as §1

[25] = target: Man(a1-3)[Man(a1-6)]Man(a1-6)[Man(a1-3)]Man(b1-4)GlcNAc(b1-4)GlcNAc
Method in brief: as §1

[26] = target: Man(a1-3)[Man(a1-6)]Man(b1-4)GlcNAc(b1-4)GlcNAc
Method in brief: as §1

[27] = target: Man(a1-3)[Man(a1-6)]Man(b1-4)GlcNAc(b1-4)[Fuc(a1-6)]GlcNAc
Method in brief: as §1

[28] = target: Man(a1-6)Man
Method in brief: as §1

[29] = target: Man(b1-4)GlcNAc
Method in brief: as §1

[30] = target: MurNAc(b1-4)GlcNAc
Method in brief: as §1

[31] = target: Neu5Ac(a2-3)Gal
Method in brief: as §1

[32] = target: Neu5Ac(a2-3)Gal(b1-3)GalNAc
Method in brief: as §1

[33] = target: Neu5Ac(a2-3)Gal(b1-3)GalNAc(b1-3)Gal(a1-4)Gal(b1-4)Glc
Method in brief: as §1

[34] = target: Neu5Ac(a2-3)Gal(b1-3)GalNAc(b1-4)Gal(b1-4)Glc
Method in brief: as §1

[35] = target: Neu5Ac(a2-3)Gal(b1-3)GalNAc(b1-4)[Neu5Ac(a2-3)]Gal(b1-4)Glc
Method in brief: as §1

[36] = target: Neu5Ac(a2-3)Gal(b1-3)GalNAc(b1-4)[Neu5Ac(a2-8)Neu5Ac(a2-3)]Gal(b1-4)Glc
Method in brief: as §1

[37] = target: Neu5Ac(a2-3)Gal(b1-3)GalNAc6S
Method in brief: as §1

[38] = target: Neu5Ac(a2-3)Gal(b1-3)GlcNAc
Method in brief: as §1

[39] = target: Neu5Ac(a2-3)Gal(b1-3)GlcNAc(b1-2)Man
Method in brief: as §1

[40] = target: Neu5Ac(a2-3)Gal(b1-3)GlcNAc(b1-2)Man(a1-3)[GlcNAc(b1-4)][Neu5Ac(a2-3)Gal(b1-3)GlcNAc(b1-2)Man(a1-6)]Man(b1-4)GlcNAc(b1-4)GlcNAc
Method in brief: as §1

[41] = target: Neu5Ac(a2-3)Gal(b1-3)GlcNAc(b1-2)Man(a1-3)[Neu5Ac(a2-3)Gal(b1-3)GlcNAc(b1-2)Man(a1-6)]Man(b1-4)GlcNAc(b1-4)GlcNAc
Method in brief: as §1

[42] = target: Neu5Ac(a2-3)Gal(b1-3)GlcNAc(b1-2)[Neu5Ac(a2-3)Gal(b1-3)GlcNAc(b1-4)]Man(a1-6)[Neu5Ac(a2-3)Gal(b1-3)GlcNAc(b1-2)Man(a1-3)]Man(b1-4)GlcNAc(b1-4)GlcNAc
Method in brief: as §1

[43] = target: Neu5Ac(a2-3)Gal(b1-3)GlcNAc(b1-3)Gal(b1-3)GlcNAc
Method in brief: as §1

[44] = target: Neu5Ac(a2-3)Gal(b1-3)GlcNAc(b1-3)Gal(b1-4)GlcNAc
Method in brief: as §1

[45] = target: Neu5Ac(a2-3)Gal(b1-3)GlcNAc(b1-3)GalNAc
Method in brief: as §1

B1: LgFlo1 (Saccharomyces pastorianus), B3IUA8 (protein)
chain: SGSTQACLPVGSRKNGMNVNFYKYSLQDSTTYSDPQYMAYKYSDTKKLGSVSGQTHLSIYYGPNTAFWNTASWSSDLFGFYTTPTNVTVEMTGYFLPPQTGSYTFKFATVDDSAILSVGGSIAFECCAQEQPPITSTDFTINGIKPWDAATPTDIKGSTYMYAGYYYPIKIVYSNAKALARLPVSVVLPDGTEVNDDFEGYVYSFDDDLSQSNCTIPDPSKHTTS
[1]
  glycan array binding signal (z-score): -0.419
[2]
  glycan array binding signal (z-score): -0.261
[3]
  glycan array binding signal (z-score): -0.359
[4]
  glycan array binding signal (z-score): -0.436
[5]
  glycan array binding signal (z-score): -0.336
[6]
  glycan array binding signal (z-score): -0.317
[7]
  glycan array binding signal (z-score): -0.379
[8]
  glycan array binding signal (z-score): 0.066
[9]
  glycan array binding signal (z-score): -0.235
[10]
  glycan array binding signal (z-score): -0.143
[11]
  glycan array binding signal (z-score): -0.332
[12]
  glycan array binding signal (z-score): -0.359
[13]
  glycan array binding signal (z-score): 0.282
[14]
  glycan array binding signal (z-score): -0.307
[15]
  glycan array binding signal (z-score): -0.013
[16]
  glycan array binding signal (z-score): -0.012
[17]
  glycan array binding signal (z-score): 0.04
[18]
  glycan array binding signal (z-score): -0.336
[19]
  glycan array binding signal (z-score): -0.305
[20]
  glycan array binding signal (z-score): -0.222
[21]
  glycan array binding signal (z-score): 0.068
[22]
  glycan array binding signal (z-score): -0.203
[23]
  glycan array binding signal (z-score): -0.347
[24]
  glycan array binding signal (z-score): -0.267
[25]
  glycan array binding signal (z-score): -0.404
[26]
  glycan array binding signal (z-score): -0.216
[27]
  glycan array binding signal (z-score): 0.154
[28]
  glycan array binding signal (z-score): -0.278
[29]
  glycan array binding signal (z-score): -0.318
[30]
  glycan array binding signal (z-score): -0.303
[31]
  glycan array binding signal (z-score): -0.003
[32]
  glycan array binding signal (z-score): 5.83
[33]
  glycan array binding signal (z-score): -0.329
[34]
  glycan array binding signal (z-score): -0.133
[35]
  glycan array binding signal (z-score): -0.34
[36]
  glycan array binding signal (z-score): 0.381
[37]
  glycan array binding signal (z-score): -0.132
[38]
  glycan array binding signal (z-score): -0.366
[39]
  glycan array binding signal (z-score): -0.279
[40]
  glycan array binding signal (z-score): -0.135
[41]
  glycan array binding signal (z-score): -0.243
[42]
  glycan array binding signal (z-score): 0.374
[43]
  glycan array binding signal (z-score): -0.588
[44]
  glycan array binding signal (z-score): -0.241
[45]
  glycan array binding signal (z-score): -0.13
